Measurements as given in the supplement of paper PMC3334620.
Over roughly 33,000 sequences, “E-score (-0.5 to 0.5)” has its median near -0.041; the highest 2% begin near 0.37. The list shows a part of the results.

Target: T1, Ecm22 (UniProt Q05958)
T1 sequence: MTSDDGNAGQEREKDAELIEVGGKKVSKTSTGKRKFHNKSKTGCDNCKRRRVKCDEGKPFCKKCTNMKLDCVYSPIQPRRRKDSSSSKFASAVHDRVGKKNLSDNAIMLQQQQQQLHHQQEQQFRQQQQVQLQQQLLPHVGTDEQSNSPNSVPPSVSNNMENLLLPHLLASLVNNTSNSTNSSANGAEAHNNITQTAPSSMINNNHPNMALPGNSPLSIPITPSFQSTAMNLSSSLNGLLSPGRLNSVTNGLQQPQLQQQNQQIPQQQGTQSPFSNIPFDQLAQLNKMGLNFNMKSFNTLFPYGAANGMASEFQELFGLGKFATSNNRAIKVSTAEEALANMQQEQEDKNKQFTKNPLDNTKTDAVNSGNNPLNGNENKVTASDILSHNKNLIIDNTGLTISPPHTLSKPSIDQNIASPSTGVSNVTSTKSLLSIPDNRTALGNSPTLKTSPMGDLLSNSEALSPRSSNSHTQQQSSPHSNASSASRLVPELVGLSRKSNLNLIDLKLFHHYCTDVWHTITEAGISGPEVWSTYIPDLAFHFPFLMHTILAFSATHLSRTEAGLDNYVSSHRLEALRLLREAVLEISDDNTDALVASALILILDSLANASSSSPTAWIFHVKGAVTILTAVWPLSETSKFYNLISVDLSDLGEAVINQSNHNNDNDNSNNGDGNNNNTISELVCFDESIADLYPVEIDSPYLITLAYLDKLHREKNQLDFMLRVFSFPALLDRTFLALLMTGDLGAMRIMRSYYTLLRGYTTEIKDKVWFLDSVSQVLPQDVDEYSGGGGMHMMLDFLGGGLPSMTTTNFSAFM
Assay: PBM E-score (8-mer binding enrichment) (E-score (-0.5 to 0.5)); higher = stronger / more preferred TF binding; most listed sequences are background and not binding sites
Conditions: protein concentration: 200 nM; construct: GST-full length
How it was run: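 PURExpress in vitro transcription/translation supplied GST-tagged yeast transcription factors, either full-length or DNA-binding domain. Applied at about 100-200 nM to universal all-10-mer Agilent arrays double-stranded by primer extension, the bound protein was detected with fluorescent anti-GST. E-scores, modified Wilcoxon-Mann-Whitney statistics, were given by the Universal PBM Analysis Suite to ungapped eight-base words pooled with their reverse complements after masliner normalisation.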

| Sequence | PBM E-score |
| --- | --- |
| TAAGGCAA | -0.0878 |
| ATACCTTA | 0.0825 |
| TCAGGCCA | -0.198 |
| AGTGTTAG | 0.00522 |
| AGTCATTG | -0.211 |
| CCACGGCA | -0.0744 |
| GGCTGTCA | -0.219 |
| ACAGGGAG | -0.238 |
| AGTGCAGG | -0.153 |
| CCGAACTC | 0.0559 |
| AGATACCA | -0.0445 |
| AGCGGAAA | -0.0681 |
| ACTCTCAT | 0.00813 |
| CCATGTAA | -0.226 |
| ACCAATTG | -0.151 |
| ATCTGCGG | -0.00985 |
| CTCACAGC | -0.268 |
| CACCGAAA | 0.116 |
| AAATCCTA | -0.0798 |
| ATCCCCAG | -0.209 |
| ACGCCTCC | -0.122 |
| AGAACCGG | -0.102 |
| AGCCGTTG | -0.0268 |
| AGGGGGAG | -0.199 |

| Sequence | PBM E-score |
| --- | --- |
| ACTGAAGA | -0.0981 |
| ATCTGAAT | -0.0605 |
| CCGTTGCC | 0.0255 |
| CCCGGCGC | -0.15 |
| AGAGATTA | 0.0172 |
| ACCCGACG | 0.167 |
| CATAGGAG | -0.246 |
| GCGCCTAA | -0.0362 |
| ACTAACCA | -0.0312 |
| CCCGTGGC | -0.202 |
| GCCACCTA | -0.123 |
| AATCCAAA | -0.0246 |
| GTGCAGCA | -0.0544 |
| CATGGGCA | -0.0655 |
| AATTCACG | 0.0776 |
| GCTGTTCA | -0.0782 |
| GAATACAC | 0.0154 |
| ACAGAATA | 0.143 |
| GCAAGTGA | -0.135 |
| TAGGACAA | -0.213 |
| AGGTTACA | -0.149 |
| ATTAGCCA | -0.00456 |
| GTCTATCA | -0.0593 |
| CCGGGGAC | -0.169 |

| Sequence | PBM E-score |
| --- | --- |
| ACAGGAAA | 0.0919 |
| ACCTCGAA | 0.0834 |
| ACATGATA | 0.082 |
| AAGGTGTG | -0.266 |
| GGGCTTAC | -0.0954 |
| CCCCTCAA | -0.166 |
| ACAGGGCT | -0.24 |
| CTACGTCC | -0.0539 |
| GTACCCCA | 0.0319 |
| ACATTACC | -0.265 |
| ACGTAGCC | 0.0335 |
| ATTTAAGA | -0.124 |
| AACCACTC | 0.0667 |
| AGTAACCA | -0.125 |
| CGAGCGAC | 0.264 |
| AAGCATCT | -0.0318 |
| CCCTATCA | -0.344 |
| ACCTATGA | -0.146 |
| ACAATTGT | 0.00386 |
| AGAGCTAT | -0.199 |
| ACCGGAAG | 0.139 |
| CCTACTGC | -0.323 |
| CATCCCTA | -0.231 |
| GTCTACAC | 0.0872 |

| Sequence | PBM E-score |
| --- | --- |
| AACTAACA | 0.217 |
| AATATCCG | 0.219 |
| GTCAGTAA | 0.0146 |
| ACGAGAAT | 0.385 |
| CAGTATTA | 0.0438 |
| AATTGACC | 0.164 |
| CTATCCCC | -0.209 |
| CGCACTAG | -0.0642 |
| CGCTCTAG | -0.132 |
| AGGTTCCC | -0.0502 |
| CAGGACGA | -0.283 |
| AAACTGCA | -0.123 |
| CAACCTAC | -0.23 |
| AAGTAGGG | -0.178 |
| AACTTTTC | -0.0753 |
| AGGGCCGG | -0.316 |
| AACTGGGC | -0.0689 |
| AACATCCC | -0.151 |
| GGGACGCA | -0.319 |
| TGCTGGAA | -0.0991 |
| GGCCGAGA | 0.0114 |
| ACGCCAAC | 0.0646 |
